Data taken from PMC4336329 (PLoS ONE, 2015).
The whole screen tested about 310,000 compounds, of which about 14,000 (4.5%) showed an effect of 50% or more. Effects have a minus sign here. This is one part of the list.

biological target: human ether-à-go-go-related gene (hERG) potassium channel (human, UniProt Q12809); assay: primary screen, population patch clamp on CHO cells stably expressing hERG
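Also: peak tail current of the secondary pulse compared with the same well before compound.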

Chain of human ether-à-go-go-related gene (hERG) potassium channel (Q12809 whole entry, looked up): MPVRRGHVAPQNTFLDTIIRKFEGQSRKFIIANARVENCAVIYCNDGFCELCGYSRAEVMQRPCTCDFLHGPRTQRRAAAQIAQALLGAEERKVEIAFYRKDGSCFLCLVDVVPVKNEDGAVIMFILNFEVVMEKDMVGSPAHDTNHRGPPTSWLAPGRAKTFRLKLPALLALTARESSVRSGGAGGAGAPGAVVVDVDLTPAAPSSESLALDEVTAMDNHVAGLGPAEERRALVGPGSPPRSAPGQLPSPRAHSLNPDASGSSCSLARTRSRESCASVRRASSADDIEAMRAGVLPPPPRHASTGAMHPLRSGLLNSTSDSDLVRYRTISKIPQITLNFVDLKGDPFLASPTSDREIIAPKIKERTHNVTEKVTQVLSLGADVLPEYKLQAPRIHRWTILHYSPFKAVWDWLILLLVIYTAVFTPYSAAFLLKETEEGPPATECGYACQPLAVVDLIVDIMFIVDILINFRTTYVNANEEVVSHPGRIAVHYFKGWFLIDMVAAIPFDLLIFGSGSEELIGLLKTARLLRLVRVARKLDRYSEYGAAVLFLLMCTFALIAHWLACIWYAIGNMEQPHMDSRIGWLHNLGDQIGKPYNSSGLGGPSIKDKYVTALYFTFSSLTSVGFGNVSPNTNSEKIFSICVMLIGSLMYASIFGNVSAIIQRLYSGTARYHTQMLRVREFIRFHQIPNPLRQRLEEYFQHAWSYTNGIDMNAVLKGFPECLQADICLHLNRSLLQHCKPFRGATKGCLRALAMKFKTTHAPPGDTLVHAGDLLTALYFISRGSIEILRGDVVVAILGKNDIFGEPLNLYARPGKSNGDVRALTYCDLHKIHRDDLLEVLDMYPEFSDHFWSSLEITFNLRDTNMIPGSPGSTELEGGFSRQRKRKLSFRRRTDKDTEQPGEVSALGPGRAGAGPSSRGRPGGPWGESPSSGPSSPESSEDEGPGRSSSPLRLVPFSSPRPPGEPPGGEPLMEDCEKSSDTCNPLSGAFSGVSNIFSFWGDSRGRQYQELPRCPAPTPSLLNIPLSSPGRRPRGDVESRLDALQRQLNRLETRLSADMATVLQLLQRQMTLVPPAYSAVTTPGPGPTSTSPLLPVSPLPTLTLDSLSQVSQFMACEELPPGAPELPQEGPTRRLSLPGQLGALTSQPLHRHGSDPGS

Row | SMILES | hERG current change (%, negative = inhibition) at 10uM [%]
1 | CCOc1ccc(-c2c(C#N)c(N)nc3c2c(=O)n(C)c(=O)n3C)cc1OC | 16
2 | C#CCOCCOCCOCCNc1nc(N2CCOCC2)nc(N2CCN(C(=O)CCCCCCCCCCNC(=O)[C@H]([C@@H](C)CC)n3cc(CCCCN=C(N)N)nn3)CC2)n1 | 1.76
3 | CCOC(=O)c1c(-c2cccs2)csc1NC(=O)COC(=O)c1c(C)noc1C | 2.09
4 | COC(=O)c1cn(CCOc2ccc(C)cc2)c2ccccc12 | 0.253
5 | O=C(CSc1nnc(CNC(=O)c2ccccc2F)o1)NCC1CCCO1 (centres unmarked) | 5.43
6 | NC(=O)c1ccc(NC(=O)CSC2=Nc3ccccc3C3CC=NN23)cc1 (centres unmarked) | 6.79
7 | Cc1oncc1C(=O)NC(C)C | -3.53
8 | CC1=Nn2c(nnc2-c2ccccc2)SC1 | 1.57
9 | O=c1cc[nH]c2c1ccc1cccnc12 | 21.5
10 | O=C(Nc1ccc(S(=O)(=O)Nc2ncccn2)cc1)c1ccccc1 | 16.6
11 | Cc1csc2nc(CNC(=O)C3CC=CCC3C(=O)O)cn12 (centres unmarked) | 18.9
12 | COc1ccc2nc(SCC(=O)O)nc(C)c2c1 | 5.94
13 | NS(=O)(=O)c1ccc(CCNS(=O)(=O)c2ccc3c(c2)NC(=O)CO3)cc1 | 14.8
14 | CCN(CC)CCN(Cc1cc2cc(C)ccc2[nH]c1=O)C(=S)Nc1ccccc1 | -50.6
15 | CCN(CC)CCN(C(=O)c1ccc2c(c1)OCCO2)c1nc2cc3c(cc2s1)OCO3.Cl | -67.3
16 | O=C1NC2(CCCCC2)CO1 | 16.1
17 | CCCCn1c(=NC(=O)c2cccnc2)c(C#N)cc2c(=O)n3cccc(C)c3nc21 | -10.6
18 | COc1ccc(C(C)NC(=O)CC23CC4CC(CC(C4)C2)C3)cc1 (centres unmarked) | -28.9
19 | CC1Cc2cc(S(=O)(=O)N3CCC(C(=O)Nc4ccccn4)CC3)ccc2N1C(=O)C1CCC1 (centres unmarked) | -10.5
20 | CCN(CC)C(=O)C(=O)c1cn(CC(=O)N2CCc3ccccc3C2)c2ccccc12 | -14.4
21 | CC(=O)OC1CC(C)(C)N(OC(=O)c2ccc(N)cc2)C(C)(C)C1 | -4.68
22 | O=c1c2sccc2nc(SCc2cc(=O)n3cc(Br)ccc3n2)n1Cc1ccccn1 | -42.4
23 | Brc1cc2c(cc1Cn1c(-c3cncs3)nc3ccccc31)OCO2 | 23.1

Row | SMILES | hERG current change (%, negative = inhibition) at 10uM [%]
24 | O=C(OCn1nnc2ccccc2c1=O)C1CCN(S(=O)(=O)c2cccs2)CC1 | -17.9
25 | O=C(NCCSCc1ccc(Cl)cc1Cl)c1ccc(CN2CCOCC2)cc1 | -54.6
26 | CCc1nnc(NC(=O)CN2CCN(CC)CC2)s1 | 6.9
27 | CC(=O)NCCC(=O)Nc1sc2c(c1-c1nc3ccccc3[nH]1)CCCC2 | 1.92
28 | CNC(=O)C(C)Sc1ccc(S(=O)(=O)N2CCOCC2)cn1 (centres unmarked) | -0.356
29 | O=C(Cn1c(=O)oc2ccccc21)N1CCN(c2ccccc2)CC1 | 4.02
30 | Clc1ccc(OCCn2ccnc2)c(Cl)c1 | -18.9
31 | Br.O=C(CSc1nc2ccccc2c(=O)n1-c1ccccc1)c1cccc([N+](=O)[O-])c1 | -7.38
32 | CCOC(=O)c1nn(-c2ccc(F)cc2)c(=O)cc1OCC(=O)N1CCN(c2ccccc2)CC1 | -15.6
33 | O=C(c1ccccc1)c1ccc(C(=O)N2CCOCC2)cc1 | 0.571
34 | O=C(NC1CCN(Cc2ccccc2)CC1)c1ccccc1F | -23.7
35 | COC(C/C=C\C(=O)[C@H](C)OCc1ccccc1)OC | 9.66
36 | COc1ccc(-n2c(SCC(=O)NCC3CCCO3)nc3c(c2=O)SCC3)cc1 (centres unmarked) | -2.34
37 | COc1ccc2nc(SCC(=O)N3CCNC3=O)[nH]c2c1 | -9.35
38 | O=C(O)c1ccc(NC(=O)C2(c3ccccc3)CCCC2)cc1 | -0.0708
39 | CC(C)[C@H](NC(=O)c1ccco1)C(=O)N(C)Cc1ccc(C(F)(F)F)cc1 | -5.29
40 | Cc1ccc2cc(CN(CC(C)C)C(=O)C3CCCO3)c(=O)[nH]c2c1 (centres unmarked) | -16.2
41 | CCC(CC)NC(=O)c1n[nH]c(=O)c2ccccc12 | 14.5
42 | COCCN(C(=O)COC(=O)/C=C/c1ccccc1Cl)c1c(N)n(Cc2ccccc2)c(=O)[nH]c1=O | 16.1
43 | Cc1ccnc(NC2(C(F)(F)F)N=C3SCCN3C2=O)c1 (centres unmarked) | -0.201
44 | S=C(NCCc1ccccc1)NCc1cccs1 | 2.6
45 | COc1cc(OC)c(NS(=O)(=O)c2ccc3c(c2)NC(=O)CO3)cc1Cl | -6.04
46 | CC(=NCCc1ccccc1)C1=C(O)C(c2ccccc2)OC1=O (centres unmarked) | 5.96

Row | SMILES | hERG current change (%, negative = inhibition) at 10uM [%]
47 | CC(=O)c1c(C)cc(C)c(CSc2nnc(-c3ccco3)o2)c1C | -32
48 | CCOC1(/N=C(\C)NS(=O)(=O)c2ccc(Cl)cc2)C(C)=CC(=O)C=C1C | 25.2
49 | Cc1csc2sc(-c3ccnc(SCC(=O)NCc4ccccc4)n3)c(C)c12 | 13.3
50 | Cc1cc(SCC(=O)N2CCN(C(=O)c3ccco3)CC2)c(C)cc1Br | -62.3
51 | COc1cc(C2CC(c3ccccc3)=NN2c2ccccc2)ccc1OCC(=O)O (centres unmarked) | 34.2
52 | O=C(c1ccc2snnc2c1)N1CCSCC1 | 4.21
53 | CCCC(=O)NC(=S)Nc1cccc(NC(=O)c2ccc(Cl)cc2Cl)c1 | 11.6
54 | COc1ccc(S(=O)(=O)N2CCOC2CNC(=O)C(=O)NCCN2CCOCC2)cc1OC (centres unmarked) | 15
55 | Cc1ccc(O)c(NC(=O)c2ccco2)c1 | 0.29
56 | COc1ccc(OC)c2nc(-c3ccncc3)ccc12 | 13.3
57 | CCc1ccc(NS(=O)(=O)c2ccc3[nH]cc(C(=O)NCC4CCCO4)c(=O)c3c2)cc1 (centres unmarked) | 15.4
58 | O=C(Nc1ccc(S(=O)(=O)N2CCCc3ccccc32)cc1)C1CCCO1 (centres unmarked) | -42
59 | Cc1ccc(C(=O)N/C(=C\c2ccco2)C(=O)NCCN2CCCCC2)cc1C | -60.1
60 | COC(=O)c1cc(C(=O)CSc2nc(C)cc(C)n2)ccc1O | -2.05
61 | CCN(CC)S(=O)(=O)c1cc(NC(=O)C(C)OC(=O)c2[nH]c(C)c(C(C)=O)c2C)ccc1C (centres unmarked) | 8.42
62 | Cc1cccc(C)c1NC(=O)CNc1ncnc2sc(C)c(C)c12 | 17.8
63 | O=C(C(=O)N1CCOCC1)c1cn(Cc2ccccc2)c2ccccc12 | -17.3
64 | S=C(NCCNCc1ccccc1)NC1CCCCC1 | 1.72
65 | Cc1nnc(SCc2cccc(CSc3nnc(C)s3)c2)s1 | -13.4
66 | Cn1c(=O)c2c(ncn2CC(=O)N2CCc3ccccc3C2)n(C)c1=O | -0.268
67 | O=C(COc1ccccc1)N1CCN(C2CCCC2)CC1.O=C(O)C(=O)O | -13.2
68 | CCOc1cc(CN2CCN(CCOCCO)CC2)ccc1OC | 13.1
69 | COc1ccc(Cn2c(=O)sc3ccccc32)cc1 | -17.8

Row | SMILES | hERG current change (%, negative = inhibition) at 10uM [%]
70 | Cc1cc(C)n(-c2cc(C)c(C)cc2Br)n1 | 2.72
71 | COc1ccc(OCCSc2nnc3c(Cl)cc(Cl)cn23)cc1 | -40.1
72 | O=C(NCc1ccco1)C(=O)NCC1OCCCN1S(=O)(=O)c1ccc(Cl)cc1 (centres unmarked) | -4.41
73 | O=C(OC1CCN(c2ccc([N+](=O)[O-])cc2)CC1)c1ccccc1 | -5.88
74 | CCc1nnc(NS(=O)(=O)c2ccc(NC(=S)NC(=O)c3ccc(OC)c(OC)c3)cc2)s1 | 12.4
75 | CCNC(=O)c1c(NC(=O)c2cc(-c3cc(C)ccc3O)n[nH]2)sc2c1CCCC2 | 30.5
76 | Cc1ccc(NC(=O)C2CCCN2C(=O)OCc2ccccc2)cc1C (centres unmarked) | -2.99
77 | O=C(N/N=C/c1ccoc1)c1ccccc1Br | 16.9
78 | Cc1cccc(C(=O)NCC(C)NC(=O)c2cccc(C)c2)c1 (centres unmarked) | 9.1
79 | O=C(COc1ccccc1[N+](=O)[O-])OC1CCS(=O)(=O)C1 (centres unmarked) | 9.26
80 | CNS(=O)(=O)c1ccc(NC(=O)c2cc(-c3ccncc3)nc3ccc(Cl)cc23)cc1 | 14.7
81 | COc1nc(-c2ccccc2)ncc1S(=O)(=O)c1ccccc1 | 37.3
82 | c1ccn2cc(-c3ccc4c(c3)OCO4)cc2c1 | 25.7
83 | O=C(CSc1nnnn1C1CCCCC1)Nc1nc2c(s1)CCCC2 | -8.47
84 | Cn1cccc1Cc1nnc(SCC(=O)NC2CCCC2)n1CCc1ccccc1 | -13
85 | CC(Oc1ccc(C#N)cc1)C(=O)NC1CCCC1 (centres unmarked) | -12.9
86 | CCOC(=O)C1CCN(C(=O)C(=O)Nc2ccc3nc4n(c(=O)c3c2)CCCCC4)CC1 | 1.99
87 | Cc1nc(C)c(C(=O)C2=C(O)C(=O)N(CCN(C)C)C2c2ccccc2)s1 (centres unmarked) | 13.4
88 | COc1ccccc1-c1nnc(SCC(=O)Nc2cc(C)on2)o1 | 9.62
89 | O=C(Cn1ccc([N+](=O)[O-])n1)c1ccccc1 | 7.16
